Test results as given in the supplement of paper PMC10037445.
In all, about 2,900 compounds were measured (“IRF Lucia reporter activity, fold change vs agonist alone”: median about 0.9, highest 2% from about 2.8 on). Some of the results follow.

What was measured:
[1] = tested on: RAW-Dual; test: IRF Lucia reporter activity, fold change vs agonist alone; cytotoxicity flag (confluency mask): not cytotoxic; higher = enhanced IRF activity
In short: (§1)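 Library stock was pin-tooled at 50 nL into 384-well plates of RAW-Dual macrophages (50,000 cells/well, DMEM), followed 1 h later by a PRR agonist, and the cells were kept at 37 °C, 5% CO2. Supernatant collected after 20 hours was read for IRF by QuantiLuc luminescence and for NF-κB by QuantiBlue absorbance at 620 nm. Reporter activity is fold change over agonist-alone wells, and a well counted as cytotoxic when its IncuCyte confluency was below 70% of agonist controls in both mask sets.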

[2] = tested on: RAW-Dual; test: IRF Lucia reporter activity, fold change vs agonist alone; higher = enhanced IRF activity; details: agonist: MPLA (TLR4) […]
In short: as §1

[3] = tested on: RAW-Dual; test: IRF Lucia reporter activity, fold change vs agonist alone; cytotoxicity flag (confluency mask): cytotoxic (confluency <70% of control); higher = enhanced IRF activity
In short: as §1

[4] = agonist: 3'3'-cGAMP (STING) 10 ug/mL
[5] = library stock concentration (final ~1000-fold dilution): 10 mM, cytotoxicity flag (confluency mask): not cytotoxic
[6] = library stock concentration (final ~1000-fold dilution): 10 mM, cytotoxicity flag (confluency mask): cytotoxic (confluency <70% of control)

Compound: Cc1ccc2nc(NC(=O)CSc3nc4c(c(=O)n3-c3ccccc3)SCC4)sc2c1 (library stock concentration (final ~1000-fold dilution): 2 mM)
- IRF Lucia reporter activity [1, 4]: 1.07
- IRF Lucia reporter activity ([1]; agonist: LPS (TLR4) 0.1 ug/mL): 1.15

Compound: Cc1ccc2nc(NC(=O)CSc3nc4c(c(=O)n3-c3ccccc3)SCC4)sc2c1
- IRF Lucia reporter activity ([2]; library stock concentration (final ~1000-fold dilution): 2 mM, cytotoxicity flag (confluency mask): not cytotoxic): 1.34

Compound: N#C/C(=C\c1ccc(O)c(O)c1)C(=O)NCc1ccccc1 (library stock concentration (final ~1000-fold dilution): 10 mM)
- IRF Lucia reporter activity [1, 4]: 0.137
- IRF Lucia reporter activity ([1]; agonist: LPS (TLR4) 0.1 ug/mL): 0.799

Compound: N#C/C(=C\c1ccc(O)c(O)c1)C(=O)NCc1ccccc1
- IRF Lucia reporter activity [2, 5]: 0.766

Compound: CC(C)(Sc1cc(C(C)(C)C)c(O)c(C(C)(C)C)c1)Sc1cc(C(C)(C)C)c(OC(=O)CCC(=O)O)c(C(C)(C)C)c1 (library stock concentration (final ~1000-fold dilution): 10 mM)
- IRF Lucia reporter activity [1, 4]: 0.636
- IRF Lucia reporter activity ([1]; agonist: LPS (TLR4) 0.1 ug/mL): 0.908

Compound: Oc1cccc(-c2nc(N3CCOCC3)c3oc4ncccc4c3n2)c1 (library stock concentration (final ~1000-fold dilution): 10 mM)
- IRF Lucia reporter activity [1, 4]: 0.381
- IRF Lucia reporter activity ([1]; agonist: LPS (TLR4) 0.1 ug/mL): 1.94

Compound: Oc1cccc(-c2nc(N3CCOCC3)c3oc4ncccc4c3n2)c1
- IRF Lucia reporter activity [2, 5]: 1.42

Compound: Cn1cc(-c2ccc3c(c2)CCN3C(=O)Cc2cccc(C(F)(F)F)c2)c2c(N)ncnc21
- IRF Lucia reporter activity [2, 5]: 0.318

Compound: Cn1cc(-c2ccc3c(c2)CCN3C(=O)Cc2cccc(C(F)(F)F)c2)c2c(N)ncnc21 (library stock concentration (final ~1000-fold dilution): 10 mM)
- IRF Lucia reporter activity [1, 4]: 0.184
- IRF Lucia reporter activity ([1]; agonist: LPS (TLR4) 0.1 ug/mL): 0.599

Compound: CC(Cc1cc2c(c(C(N)=O)c1)N(CCCO)CC2)NCCOc1ccccc1OCC(F)(F)F (configuration not stated) (library stock concentration (final ~1000-fold dilution): 10 mM)
- IRF Lucia reporter activity [1, 4]: 0.978
- IRF Lucia reporter activity ([1]; agonist: LPS (TLR4) 0.1 ug/mL): 0.994

Compound: CC(Cc1cc2c(c(C(N)=O)c1)N(CCCO)CC2)NCCOc1ccccc1OCC(F)(F)F (configuration not stated)
- IRF Lucia reporter activity [2, 5]: 1

Compound: CC1OC(=O)C(C)C1CC(O)C(C)(O)C1CCC2(O)C3=CC(=O)C4CC(O)C(O)CC4(C)C3CCC12C (configuration not stated) (library stock concentration (final ~1000-fold dilution): 10 mM)
- IRF Lucia reporter activity [1, 4]: 0.966
- IRF Lucia reporter activity ([1]; agonist: LPS (TLR4) 0.1 ug/mL): 0.956

Compound: O=C(/C=C/c1ccc(O)c(O)c1)O[C@@H]1C[C@](O)(C(=O)O)C[C@@H](O)[C@H]1O (library stock concentration (final ~1000-fold dilution): 10 mM)
- IRF Lucia reporter activity [1, 4]: 1.08
- IRF Lucia reporter activity ([1]; agonist: LPS (TLR4) 0.1 ug/mL): 1.11

Compound: C=CCc1ccccc1OCC(O)CNC(C)C.Cl (configuration not stated) (library stock concentration (final ~1000-fold dilution): 10 mM)
- IRF Lucia reporter activity [1, 4]: 0.823
- IRF Lucia reporter activity ([1]; agonist: LPS (TLR4) 0.1 ug/mL): 0.999

Compound: C=CCc1ccccc1OCC(O)CNC(C)C.Cl (configuration not stated)
- IRF Lucia reporter activity [2, 5]: 1.13

Compound: O=S(=O)(Cl)c1ccc(-c2ccccc2)cc1
- IRF Lucia reporter activity [2, 5]: 1.02

Compound: O=S(=O)(Cl)c1ccc(-c2ccccc2)cc1 (library stock concentration (final ~1000-fold dilution): 10 mM)
- IRF Lucia reporter activity [1, 4]: 1.02
- IRF Lucia reporter activity ([1]; agonist: LPS (TLR4) 0.1 ug/mL): 0.592

Compound: Nc1nc(Cl)nc2c1ncn2C1CC(O)C(CO)O1 (configuration not stated)
- IRF Lucia reporter activity [2, 6]: 0.914

Compound: Nc1nc(Cl)nc2c1ncn2C1CC(O)C(CO)O1 (configuration not stated) (library stock concentration (final ~1000-fold dilution): 10 mM)
- IRF Lucia reporter activity [3, 4]: 0.706
- IRF Lucia reporter activity ([3]; agonist: LPS (TLR4) 0.1 ug/mL): 0.942

Compound: CC(C)n1nc(-c2ccc(NC(=O)Nc3cc(C(F)(F)F)ccc3F)cc2)c2c(N)ncnc21 (library stock concentration (final ~1000-fold dilution): 10 mM)
- IRF Lucia reporter activity [1, 4]: 0.0107
- IRF Lucia reporter activity ([1]; agonist: LPS (TLR4) 0.1 ug/mL): 0.0198

Compound: N#Cc1c(NC(=O)c2cccc3ccccc23)sc2c1CCCC2
- IRF Lucia reporter activity [2, 5]: 1.73

Compound: N#Cc1c(NC(=O)c2cccc3ccccc23)sc2c1CCCC2 (library stock concentration (final ~1000-fold dilution): 10 mM)
- IRF Lucia reporter activity [1, 4]: 0.636
- IRF Lucia reporter activity ([1]; agonist: LPS (TLR4) 0.1 ug/mL): 1.55

Compound: C=CC(=O)Nc1cccc(Nc2nc(Nc3ccc(OCCOC)cc3)ncc2F)c1
- IRF Lucia reporter activity [2, 5]: 0.0928

Compound: C=CC(=O)Nc1cccc(Nc2nc(Nc3ccc(OCCOC)cc3)ncc2F)c1 (library stock concentration (final ~1000-fold dilution): 10 mM)
- IRF Lucia reporter activity [1, 4]: 0.0159
- IRF Lucia reporter activity ([1]; agonist: LPS (TLR4) 0.1 ug/mL): 0.0838

Compound: CCC(=O)Nc1cccc(Oc2nc(Nc3ccc(N4CCN(C)CC4)cc3OC)ncc2Cl)c1
- IRF Lucia reporter activity [2, 6]: 1.02

Compound: CCC(=O)Nc1cccc(Oc2nc(Nc3ccc(N4CCN(C)CC4)cc3OC)ncc2Cl)c1 (library stock concentration (final ~1000-fold dilution): 10 mM)
- IRF Lucia reporter activity [3, 4]: 0.692
- IRF Lucia reporter activity ([3]; agonist: LPS (TLR4) 0.1 ug/mL): 0.774

Compound: CC(C)CC(=O)NC(C(=O)NC(C(=O)NC(CC(C)C)C(O)CC(=O)NC(C)C(=O)NC(CC(C)C)C(O)CC(=O)O)C(C)C)C(C)C (configuration not stated)
- IRF Lucia reporter activity [2, 5]: 1.05

Compound: CC(C)CC(=O)NC(C(=O)NC(C(=O)NC(CC(C)C)C(O)CC(=O)NC(C)C(=O)NC(CC(C)C)C(O)CC(=O)O)C(C)C)C(C)C (configuration not stated) (library stock concentration (final ~1000-fold dilution): 10 mM)
- IRF Lucia reporter activity [1, 4]: 0.751
- IRF Lucia reporter activity ([1]; agonist: LPS (TLR4) 0.1 ug/mL): 0.901

Compound: COc1ccc(CCc2nc3cc(-c4c(C)noc4C)ccc3n2CC(C)N2CCOCC2)cc1Cl (configuration not stated) (library stock concentration (final ~1000-fold dilution): 10 mM)
- IRF Lucia reporter activity [1, 4]: 0.452
- IRF Lucia reporter activity ([1]; agonist: LPS (TLR4) 0.1 ug/mL): 0.421

Compound: COc1ccc(CCc2nc3cc(-c4c(C)noc4C)ccc3n2CC(C)N2CCOCC2)cc1Cl (configuration not stated)
- IRF Lucia reporter activity [2, 5]: 0.203

Compound: O=C1NCCCc2c1oc1ccc(O)cc21
- IRF Lucia reporter activity [2, 5]: 0.466

Compound: O=C1NCCCc2c1oc1ccc(O)cc21 (library stock concentration (final ~1000-fold dilution): 10 mM)
- IRF Lucia reporter activity [1, 4]: 0.578
- IRF Lucia reporter activity ([1]; agonist: LPS (TLR4) 0.1 ug/mL): 0.289

Compound: COc1cc(N2CCC(N3CCN(C)CC3)CC2)ccc1Nc1ncc(Cl)c(Nc2ccccc2P(C)(C)=O)n1 (library stock concentration (final ~1000-fold dilution): 2 mM)
- IRF Lucia reporter activity [1, 4]: 0.139
- IRF Lucia reporter activity ([1]; agonist: LPS (TLR4) 0.1 ug/mL): 0.597

Compound: COc1ccccc1OCC(O)COC(N)=O (configuration not stated) (library stock concentration (final ~1000-fold dilution): 10 mM)
- IRF Lucia reporter activity [1, 4]: 0.995
- IRF Lucia reporter activity ([1]; agonist: LPS (TLR4) 0.1 ug/mL): 0.997

Compound: COc1ccccc1OCC(O)COC(N)=O (configuration not stated)
- IRF Lucia reporter activity [2, 5]: 0.678

Compound: NC(=O)C(=Cn1cnc(-c2cc(C(F)(F)F)cc(C(F)(F)F)c2)n1)c1cncnc1 (library stock concentration (final ~1000-fold dilution): 10 mM)
- IRF Lucia reporter activity [1, 4]: 0.0799
- IRF Lucia reporter activity ([1]; agonist: LPS (TLR4) 0.1 ug/mL): 0.172
